As usually defined, the CC50 is the concentration giving 50% cytotoxicity.

The test system of one data set is HepG2. Nature of the data set: EIDD-2749 cytotoxicity. The format is cell-based. As to conditions: HepG2 cells.
Another data set concerns RAW264.7 cells. Nature of the data set: Cytotoxicity (CC50) run with the norovirus assay.
For data set [1] the following is noted: mouse, in vivo, po, 10 mg/kg.
For data set [2] the following is noted: pH 5.2. As to the method: Vials were pre-incubated in LC autosampler set at 37° C. for at least 15 minutes prior to spiking the SGF with the drug. Vials were placed back in the 37° C.-autosampler and injections were made at times: 0, 0.5, 1, 1.5, 2, 2.5, 3, 3.5, and 4 hours and analyzed by LC-MS/MS. No internal standard was used.
(§1) For EIDD-3232, the mobile phase was isocratic using 18% A: 100 mM ammonium formate in water+0.1% (v/v) formic acid and 82% B: acetonitrile+0.1% (v/v) formic acid at a flow rate of 1000 L/min with a run time of about 3 minutes.

The conditions of data set [3]: pH 1.3. As to the method:
Briefly, EIDD-3232 was incubated in triplicate at 50.0 μM (1.25 μL of a 40 mM DMSO solution in 999 L) in simulated gastric fluid (SGF: 0.200 (w/v) NaCl in 0.700 (v/v) concentrated HCl, Ricca, Lot 2202943) in 2-mL HPLC vials. Vials were pre-incubated in LC autosampler set at 37° C. for at least 15 minutes prior to spiking the SGF with the drug. Vials were placed back in the 37° C.-autosampler and injections were made at times: 0, 0.5, 1, 1.5, 2, 2.5, 3, 3.5, and 4 hours and analyzed by LC-MS/MS. No internal standard was used.
as §1

Structures are written as SMILES. A value given as a limit tells only on which side of the number the result lay.

`O=c1ccn([C@@H]2O[C@](F)(CO)[C@@H](O)[C@H]2O)c(=O)[nH]1` [EIDD-2749, 4′-fluorouridine]: the figures for the CC50 with HepG2 and in the data set with RAW264.7 cells were greater than 400 µM and greater than 100 µM, respectively.

In the case of `CC(C)OC(=O)[C@H](C)N[P@](=O)(OC[C@@]1(F)O[C@@H](n2ccc(=O)[nH]c2=O)[C@H](O)[C@@H]1O)Oc1ccccc1` [EIDD-3232, isopropyl ((S)-(((2S,3S,4R,5R)-5-(2,4-dioxo-3,4-dihydropyrimidin-1(2H)-yl)-2-fluoro-3,4-dihydroxytetrahydrofuran-2-yl)methoxy)(phenoxy)phosphoryl)-L-alaninate], in data set [1], the “Cmax of the analyte” value is listed as “BQL”, the EIDD-3232 in plasma entry was “not observed” and the EIDD-3321 in plasma result is “BQL”. Besides, in data set [2], the “EIDD-2749 production in SIF” value is “negligible”, the “metabolites/degradants detected (lower limit of quantitation)” value was no more than 0.125 µM and the uracil average concentration is 0.152 µM. For the same molecule, in data set [3], the “EIDD-2749 production in SGF” value is recorded as “negligible” and the “uracil (degradant) as % of the time-zero concentration” value is on record as less than 8%.

Source of the values: patent US20260124226A1 (priority 2023, published 2026).
